From paper PMC12820563, “FoxP3 forms a head-to-head dimer in vivo and stabilizes its multimerization on adjacent microsatellites”
The list shows a part of the results.

Biological target: T1, MBP-FoxP1dN (Mus musculus, UniProt P58462 326-579)
T1 sequence: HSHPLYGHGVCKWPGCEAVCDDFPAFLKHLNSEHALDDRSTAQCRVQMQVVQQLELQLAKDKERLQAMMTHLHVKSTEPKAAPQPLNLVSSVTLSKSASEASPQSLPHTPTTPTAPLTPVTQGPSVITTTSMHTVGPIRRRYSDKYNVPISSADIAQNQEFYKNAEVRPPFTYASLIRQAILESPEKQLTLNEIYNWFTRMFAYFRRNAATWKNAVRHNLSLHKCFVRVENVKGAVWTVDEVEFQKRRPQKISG
Test: PD-seq (MBP pull-down with sequencing); 20 mM Tris-HCl pH 7.5, 100 mM NaCl, 1.5 mM MgCl2, 0.4 uM protein, 0.1 uM dsDNA library, 30 min, room temperature, amylose pull-down; high values mean tight binding
Conditions: protein: recombinant; tags: His6-MBP; chain copies: 2; dsDNA, one strand shown
Method in brief: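 A degenerate double-stranded DNA library, filled in with Klenow, was added at 0.1 µM to 0.4 µM His6-MBP-tagged mouse FoxP3 or FoxP1 fragment lacking the N-terminus, expressed in E. coli. Incubation lasted 30 min at room temperature in Tris pH 7.5 buffer with NaCl and MgCl2, after which complexes were collected on amylose resin, washed three times, digested with proteinase K to free the DNA, barcoded by PCR and sequenced by Illumina. Binding is the pooled-replicate reads-per-million enrichment of pull-down over input.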

Sequence	binding signal
GATGATTGTTCTCCCAGCTGATGAATTGGACGATTCGAGTAAACAAATTTTCCTAATCTTTCTGTTCAAGCGCCATCTAC	0.842 RPM ratio (pull-down/input)
GATGATTGTTCTCCCAGCTGATGAATTTTGATCATCGAGTAAACAAATTTTCCTAATCTTTCTGTTCAAGCGCCATCTAC	1.08 RPM ratio (pull-down/input)
GATGATTGTTCTCCCAGCTGATGAATTCTCTATGTCGAGTAAACAAATTTTCCTAATCTTTCTGTTCAAGCGCCATCTAC	0.833 RPM ratio (pull-down/input)
GATGATTGTTCTCCCAGCTGATGAATTATAAGTTTCGAGTAAACAAATTTTCCTAATCTTTCTGTTCAAGCGCCATCTAC	1.02 RPM ratio (pull-down/input)
GATGATTGTTCTCCCAGCTGATGAATTACCAACGTCGAGTAAACAAATTTTCCTAATCTTTCTGTTCAAGCGCCATCTAC	1.07 RPM ratio (pull-down/input)
GATGATTGTTCTCCCAGCTGATGAATTGTGGATTTCGAGTAAACAAATTTTCCTAATCTTTCTGTTCAAGCGCCATCTAC	1.08 RPM ratio (pull-down/input)
GATGATTGTTCTCCCAGCTGATGAATTTGAGGGTTCGAGTAAACAAATTTTCCTAATCTTTCTGTTCAAGCGCCATCTAC	0.789 RPM ratio (pull-down/input)
GATGATTGTTCTCCCAGCTGATGAATTCAACCTGTCGAGTAAACAAATTTTCCTAATCTTTCTGTTCAAGCGCCATCTAC	0.827 RPM ratio (pull-down/input)
GATGATTGTTCTCCCAGCTGATGAATTTTATTGATCGAGTAAACAAATTTTCCTAATCTTTCTGTTCAAGCGCCATCTAC	2.45 RPM ratio (pull-down/input)
GATGATTGTTCTCCCAGCTGATGAATTTGCTGGTTCGAGTAAACAAATTTTCCTAATCTTTCTGTTCAAGCGCCATCTAC	0.997 RPM ratio (pull-down/input)
GATGATTGTTCTCCCAGCTGATGAATTCGTTGACTCGAGTAAACAAATTTTCCTAATCTTTCTGTTCAAGCGCCATCTAC	0.913 RPM ratio (pull-down/input)
GATGATTGTTCTCCCAGCTGATGAATTCTCCTTGTCGAGTAAACAAATTTTCCTAATCTTTCTGTTCAAGCGCCATCTAC	0.774 RPM ratio (pull-down/input)
GATGATTGTTCTCCCAGCTGATGAATTTGGACGTTCGAGTAAACAAATTTTCCTAATCTTTCTGTTCAAGCGCCATCTAC	0.923 RPM ratio (pull-down/input)
GATGATTGTTCTCCCAGCTGATGAATTAGCGATCTCGAGTAAACAAATTTTCCTAATCTTTCTGTTCAAGCGCCATCTAC	0.82 RPM ratio (pull-down/input)
GATGATTGTTCTCCCAGCTGATGAATTACTGGACTCGAGTAAACAAATTTTCCTAATCTTTCTGTTCAAGCGCCATCTAC	0.911 RPM ratio (pull-down/input)
GATGATTGTTCTCCCAGCTGATGAATTCGGAGAATCGAGTAAACAAATTTTCCTAATCTTTCTGTTCAAGCGCCATCTAC	0.901 RPM ratio (pull-down/input)

Sequence	binding signal
GATGATTGTTCTCCCAGCTGATGAATTGGGAGAGTCGAGTAAACAAATTTTCCTAATCTTTCTGTTCAAGCGCCATCTAC	0.805 RPM ratio (pull-down/input)
GATGATTGTTCTCCCAGCTGATGAATTTAAGTTCTCGAGTAAACAAATTTTCCTAATCTTTCTGTTCAAGCGCCATCTAC	0.899 RPM ratio (pull-down/input)
GATGATTGTTCTCCCAGCTGATGAATTGTATCACTCGAGTAAACAAATTTTCCTAATCTTTCTGTTCAAGCGCCATCTAC	1.14 RPM ratio (pull-down/input)
GATGATTGTTCTCCCAGCTGATGAATTTTATAAATCGAGTAAACAAATTTTCCTAATCTTTCTGTTCAAGCGCCATCTAC	1.13 RPM ratio (pull-down/input)
GATGATTGTTCTCCCAGCTGATGAATTTTGCGTCTCGAGTAAACAAATTTTCCTAATCTTTCTGTTCAAGCGCCATCTAC	0.991 RPM ratio (pull-down/input)
GATGATTGTTCTCCCAGCTGATGAATTGTCACACTCGAGTAAACAAATTTTCCTAATCTTTCTGTTCAAGCGCCATCTAC	1.07 RPM ratio (pull-down/input)
GATGATTGTTCTCCCAGCTGATGAATTTAGGAAATCGAGTAAACAAATTTTCCTAATCTTTCTGTTCAAGCGCCATCTAC	1.11 RPM ratio (pull-down/input)
GATGATTGTTCTCCCAGCTGATGAATTTGTTCCGTCGAGTAAACAAATTTTCCTAATCTTTCTGTTCAAGCGCCATCTAC	1.13 RPM ratio (pull-down/input)
GATGATTGTTCTCCCAGCTGATGAATTAAAGGATTCGAGTAAACAAATTTTCCTAATCTTTCTGTTCAAGCGCCATCTAC	0.866 RPM ratio (pull-down/input)
GATGATTGTTCTCCCAGCTGATGAATTGTATCGATCGAGTAAACAAATTTTCCTAATCTTTCTGTTCAAGCGCCATCTAC	1.02 RPM ratio (pull-down/input)
GATGATTGTTCTCCCAGCTGATGAATTAGGAGGATCGAGTAAACAAATTTTCCTAATCTTTCTGTTCAAGCGCCATCTAC	0.888 RPM ratio (pull-down/input)
GATGATTGTTCTCCCAGCTGATGAATTACTTTGTTCGAGTAAACAAATTTTCCTAATCTTTCTGTTCAAGCGCCATCTAC	1.1 RPM ratio (pull-down/input)
GATGATTGTTCTCCCAGCTGATGAATTATTGAATTCGAGTAAACAAATTTTCCTAATCTTTCTGTTCAAGCGCCATCTAC	1.14 RPM ratio (pull-down/input)
GATGATTGTTCTCCCAGCTGATGAATTTGGTCCCTCGAGTAAACAAATTTTCCTAATCTTTCTGTTCAAGCGCCATCTAC	0.875 RPM ratio (pull-down/input)
GATGATTGTTCTCCCAGCTGATGAATTCCTGCCGTCGAGTAAACAAATTTTCCTAATCTTTCTGTTCAAGCGCCATCTAC	0.766 RPM ratio (pull-down/input)
